Out of some 310,000 compounds screened, about 2,200 (0.71%) showed an effect of 50% or more. Effects have a minus sign here. The list shows a part of the results.

human ether-à-go-go-related gene (hERG) potassium channel, sequence (Q12809 whole entry, looked up): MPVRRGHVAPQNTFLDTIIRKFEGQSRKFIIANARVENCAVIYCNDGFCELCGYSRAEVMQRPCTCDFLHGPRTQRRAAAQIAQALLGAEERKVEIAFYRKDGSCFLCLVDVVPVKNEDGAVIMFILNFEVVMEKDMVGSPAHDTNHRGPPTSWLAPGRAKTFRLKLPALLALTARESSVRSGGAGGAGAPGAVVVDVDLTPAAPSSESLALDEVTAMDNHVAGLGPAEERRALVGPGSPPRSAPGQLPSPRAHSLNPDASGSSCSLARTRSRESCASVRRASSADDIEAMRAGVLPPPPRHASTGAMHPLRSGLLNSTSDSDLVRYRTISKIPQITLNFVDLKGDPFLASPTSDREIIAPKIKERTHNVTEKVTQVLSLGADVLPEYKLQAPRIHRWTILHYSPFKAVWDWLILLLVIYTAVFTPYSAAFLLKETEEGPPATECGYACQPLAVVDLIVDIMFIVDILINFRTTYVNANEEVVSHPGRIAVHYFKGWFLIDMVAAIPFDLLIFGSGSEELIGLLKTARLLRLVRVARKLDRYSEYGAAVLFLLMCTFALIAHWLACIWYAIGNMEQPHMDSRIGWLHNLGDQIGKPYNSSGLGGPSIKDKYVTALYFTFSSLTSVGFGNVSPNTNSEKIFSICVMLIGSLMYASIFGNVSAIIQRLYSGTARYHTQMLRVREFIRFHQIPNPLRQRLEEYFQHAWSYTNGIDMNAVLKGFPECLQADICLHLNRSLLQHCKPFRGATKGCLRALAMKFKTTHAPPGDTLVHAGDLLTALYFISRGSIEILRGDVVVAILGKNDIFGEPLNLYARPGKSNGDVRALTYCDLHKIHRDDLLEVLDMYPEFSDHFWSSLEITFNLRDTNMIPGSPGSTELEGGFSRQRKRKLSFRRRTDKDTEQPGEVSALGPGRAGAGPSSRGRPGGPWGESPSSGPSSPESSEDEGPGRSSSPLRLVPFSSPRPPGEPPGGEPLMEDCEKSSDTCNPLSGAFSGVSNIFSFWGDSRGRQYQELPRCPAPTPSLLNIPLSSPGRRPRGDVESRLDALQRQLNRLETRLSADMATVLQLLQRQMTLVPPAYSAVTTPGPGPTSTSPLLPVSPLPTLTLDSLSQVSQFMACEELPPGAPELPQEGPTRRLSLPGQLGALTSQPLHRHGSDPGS

This assay concerns the target human ether-à-go-go-related gene (hERG) potassium channel (human, UniProt Q12809). In words: primary screen, population patch clamp on CHO cells stably expressing hERG.
Regarding `O=C(Nc1ccc(-c2cn3ccsc3n2)cc1)C1CC1`, the “hERG current change (%, negative = inhibition) at 1uM” value is 3.88%.

Take `CC(=O)NCCn1c(SCC(=O)c2ccc(Cl)cc2)nc2ccccc2c1=O`: the “hERG current change (%, negative = inhibition) at 1uM” value is recorded as 3.58%.

As for `Cn1nnnc1Sc1ncnc2scc(-c3cccc(S(C)(=O)=O)c3)c12`, the “hERG current change (%, negative = inhibition) at 1uM” value was determined as 12.6%.

As to `O/N=C(/c1ccc(F)cc1)C1CC1c1c(F)cccc1Cl` (stereo not drawn), the “hERG current change (%, negative = inhibition) at 1uM” value worked out at 11.9%.

Regarding `CCOc1ccc(N(CC(=O)NCC2CCCO2)C(=O)CCC(=O)Nc2nccs2)cc1` (stereo not drawn), the “hERG current change (%, negative = inhibition) at 1uM” value amounted to 18.8%.

Consider `CCOC(=O)c1c(NC(=O)c2ccno2)c2cc([N+](=O)[O-])ccc2n1C`, for which the “hERG current change (%, negative = inhibition) at 1uM” value worked out at 13.4%.

On to `O=C(N/N=C/c1cccnc1)c1ccc2c(c1)OCO2`, for which the “hERG current change (%, negative = inhibition) at 1uM” value is listed as 9.81%.

Regarding `CCCCC1(CN2CCCC2=O)C(=O)NC(=O)NC1=O`, the “hERG current change (%, negative = inhibition) at 1uM” value is 10.7%.

As for `O=C(Nc1cccc(Cl)c1Cl)c1ccccc1OCC(=O)N1CCOCC1`, the “hERG current change (%, negative = inhibition) at 1uM” value is -2.07%.

`CN1CCN(CC(=O)Nc2nc3ccccc3s2)CC1.O=CO`: the “hERG current change (%, negative = inhibition) at 1uM” value is given as 9.98%.

Take `CCOC(=O)COc1cc(-n2c(=S)[nH]c3cc(OC)c(OC)cc3c2=O)c(Cl)cc1Cl`: the “hERG current change (%, negative = inhibition) at 1uM” value was determined as 15.9%.

Turning to `Cc1c(N=Cc2nc3ccccc3n2C)c(=O)n(-c2ccccc2)n1C`, the “hERG current change (%, negative = inhibition) at 1uM” value is -6.74%.

Turning to `Cc1cccc(Oc2ccccc2NC(=O)CN2C(=O)NC3(CCCC3)C2=O)c1`, the “hERG current change (%, negative = inhibition) at 1uM” value came out at 15.5%.

As for `O=c1c2ccccc2nc(/C=C/c2ccc(Cl)cc2)n1CCO`, the “hERG current change (%, negative = inhibition) at 1uM” value is 18.2%.

Consider `Cc1ccc(Cn2nnc3c(=O)[nH]c(C4CCCN(S(=O)(=O)c5ccc(F)cc5)C4)nc32)cc1` (stereo not drawn), for which the “hERG current change (%, negative = inhibition) at 1uM” value is 11.9%.

For the compound `Cc1nc2cc(NC(=O)CS(=O)(=O)c3ccc(F)cc3)ccc2s1`, the “hERG current change (%, negative = inhibition) at 1uM” value was -6.12%.

On to `O=C(NCc1nc2ccccc2[nH]1)C1=C[C@H](c2ccccc2)C[C@H](OCc2ccc(CO)cc2)O1`, for which the “hERG current change (%, negative = inhibition) at 1uM” value came to 4.19%.

In the case of `Clc1cc(Cl)c(Cl)cc1Cl`, the “hERG current change (%, negative = inhibition) at 1uM” value is given as 4.81%.

As for `COC(=O)c1[nH]c(C)c(/C(O)=C2\C(=O)C(=O)N(CCN(C)C)C2c2cccs2)c1C` (stereo not drawn), the “hERG current change (%, negative = inhibition) at 1uM” value was 12.8%.

As for `Cc1cccc(NC(=O)c2c(C)nn(-c3ccccc3)c2Cl)c1`, the “hERG current change (%, negative = inhibition) at 1uM” value was -0.159%.

For `CC(=O)c1cccc(NC(=O)COC(=O)COc2ccc(Cl)cc2)c1`, the “hERG current change (%, negative = inhibition) at 1uM” value came out at 16.4%.

Regarding `Cc1cc(OC(=O)c2cccc(Br)c2)c([N+](=O)[O-])c(=O)[nH]1`, the “hERG current change (%, negative = inhibition) at 1uM” value is 6.44%.

`O=C(Nc1ccc(F)cc1)Nc1ccc2c(c1)CCC2`: the “hERG current change (%, negative = inhibition) at 1uM” value is 15.1%.

Consider `O=C(c1ccccc1[N+](=O)[O-])N1N=C(c2ccccc2)CC1(O)C(F)(F)F` (stereo not drawn), for which the “hERG current change (%, negative = inhibition) at 1uM” value is on record as 20.7%.

As to `CCOC(=O)C1(Cc2cccc(F)c2)CCN(Cc2nc(CC)[nH]c2C)CC1`, the “hERG current change (%, negative = inhibition) at 1uM” value was -2.82%.

In the case of `Cc1ccc2nsnc2c1NC(=O)COc1ccccc1F`, the “hERG current change (%, negative = inhibition) at 1uM” value came out at 9.57%.

Take `O=S(=O)(NCc1ccccn1)c1ccc2ccccc2c1`: the “hERG current change (%, negative = inhibition) at 1uM” value is listed as 12.9%.

Consider `Cc1ccc(S(=O)(=O)Nc2nc(C)cc(NN)n2)cc1`, for which the “hERG current change (%, negative = inhibition) at 1uM” value came out at 20.5%.

For `COc1cc(NC(=O)[C@H]2CSCN2C(=O)[C@@H]2CCC(=O)N2)cc(OC)c1OC`, the “hERG current change (%, negative = inhibition) at 1uM” value stood at 10.8%.

On to `CC(C)(C)C(=O)NCCn1ccc2ccccc21`, for which the “hERG current change (%, negative = inhibition) at 1uM” value was 18%.

As for `CC(C)c1nc2sc3c(SCC(=O)NCc4ccco4)ncnc3c2c2c1CCC2`, the “hERG current change (%, negative = inhibition) at 1uM” value is on record as 3.23%.

For the compound `COc1cc(C2NC(=O)NC(C)=C2C(=O)OCc2ccccc2)ccc1O` (stereo not drawn), the “hERG current change (%, negative = inhibition) at 1uM” value is reported as -3.8%.

For `CN(C)CCCNc1cc(C(C)(C)C)nc2c(-c3ccccc3)cnn12`, the “hERG current change (%, negative = inhibition) at 1uM” value is 11.9%.

With `Cc1ccc(N2CC(C(=O)OCc3ccc([N+](=O)[O-])cc3)CC2=O)cc1` (stereo not drawn), the “hERG current change (%, negative = inhibition) at 1uM” value is listed as -35.7%.

In the case of `CC1(C)C(N(O)C(=O)Nc2ccccc2)N(c2cccc(Cl)c2)C(=O)N1O` (stereo not drawn), the “hERG current change (%, negative = inhibition) at 1uM” value was 14.7%.

As to `COc1ccc(OC)c(NC(=O)CCN2CC(C)CC(C)C2)c1.Cl` (stereo not drawn), the “hERG current change (%, negative = inhibition) at 1uM” value is recorded as 9.11%.

Turning to `Cc1nnc(N2C(=O)c3oc4ccccc4c(=O)c3C2c2ccco2)s1` (stereo not drawn), the “hERG current change (%, negative = inhibition) at 1uM” value stood at 3.12%.

On to `Cc1nc(NC(=O)c2cccc(-c3cc4ccccc4oc3=O)c2)ccc1Br`, for which the “hERG current change (%, negative = inhibition) at 1uM” value came out at 11.1%.

Turning to `Cc1cc2ccccc2n1CCNC(=O)Cc1cccc2ccccc12`, the “hERG current change (%, negative = inhibition) at 1uM” value is listed as 20.2%.

In the case of `CN1C(C(=O)NCc2ccco2)CC2Cn3c(nc4ccccc43)C21` (stereo not drawn), the “hERG current change (%, negative = inhibition) at 1uM” value is reported as 13.4%.

As for `Cc1cc(N)ccc1-n1nc2ccccc2n1`, the “hERG current change (%, negative = inhibition) at 1uM” value came to 3.57%.

Turning to `COc1ccc(Cn2c(CCC(=O)Nc3ccccc3OC)nc3cccnc32)cc1`, the “hERG current change (%, negative = inhibition) at 1uM” value is 1.32%.

As to `CC1CCC(NC(=O)C(NS(=O)(=O)c2cccc3nsnc23)C(C)C)CC1` (stereo not drawn), the “hERG current change (%, negative = inhibition) at 1uM” value was determined as 10.3%.

On to `O=C1c2ccccc2C(=O)N1CCCn1ccnc1`, for which the “hERG current change (%, negative = inhibition) at 1uM” value stood at 16.3%.

For the compound `COc1ccc(CNCC(O)(c2ccc(Cl)cc2)c2ccc(Cl)cc2)cc1OC`, the “hERG current change (%, negative = inhibition) at 1uM” value was 6.91%.

`O=C(CSc1ncccn1)NNC(=O)c1ccccc1`: the “hERG current change (%, negative = inhibition) at 1uM” value turned out to be 10.8%.

In the case of `CCCCOC(=O)c1ccc(S(N)(=O)=O)o1`, the “hERG current change (%, negative = inhibition) at 1uM” value was 1.59%.

Regarding `CN(Cc1cc([N+](=O)[O-])c2cccnc2c1O)C1CCCCC1`, the “hERG current change (%, negative = inhibition) at 1uM” value was -1.94%.

As to `CCOc1ccc(-c2noc(CCCC(N)=O)n2)cc1OC`, the “hERG current change (%, negative = inhibition) at 1uM” value is 10.2%.

For the compound `O=C(Nc1ccc(F)cc1)NC1CCN(Cc2nnnn2Cc2ccco2)CC1`, the “hERG current change (%, negative = inhibition) at 1uM” value is reported as -11.7%.

In the case of `O=C(c1cc(C2CC2)nn1-c1ccccc1)N1CCN(S(=O)(=O)c2c(F)cccc2F)CC1`, the “hERG current change (%, negative = inhibition) at 1uM” value came out at 1.9%.

`CC(C)NC(=O)CN1C(=O)C(=O)c2ccccc21`: the “hERG current change (%, negative = inhibition) at 1uM” value is on record as 5.86%.

As for `Fc1ccc(OCCCn2ccnc2)cc1`, the “hERG current change (%, negative = inhibition) at 1uM” value turned out to be 14.7%.

As for `CCn1c(SCC(=O)Nc2ccccc2)nc2ccccc2c1=O`, the “hERG current change (%, negative = inhibition) at 1uM” value was 14.1%.

For `C=CCSc1nnc(Cc2cc(=O)[nH]c(=O)[nH]2)n1-c1cc(C)ccc1C`, the “hERG current change (%, negative = inhibition) at 1uM” value is 4.89%.

Turning to `O=S(=O)(c1ccc(F)cc1)N1CCCC(CO)C1` (stereo not drawn), the “hERG current change (%, negative = inhibition) at 1uM” value is on record as -1.09%.

Regarding `CCOc1ccc(N2C(=O)/C(=C/c3cc(OC)c(OC)c(OC)c3)N(CC(=O)OC)C2=S)cc1`, the “hERG current change (%, negative = inhibition) at 1uM” value came out at 7.14%.

The values above are taken from article PMC4336329 (PLoS ONE, 2015).
